In PubChem BioAssay AID894 (National Center for Advancing Translational Sciences (NCATS), 2007):
Where “and” joins values, the source holds several entries; their conditions need not be identical. Equal values may be shown once. Out of some 150,000 compounds screened, about 6,500 (4.3%) were called active. Inconclusive results, whose numbers are uncertain, are shown with a selection of clear calls. Calls follow the shape of the dose curve; as a rule, active = well fitted inhibition curve with a large enough effect (not every such curve was filed as active); inconclusive = small, poorly fitted or top-dose-only effect, or another doubt; inactive = no such curve, though single readings can be large or run the other way. Potencies beside an inconclusive call are fits to weak or partial responses and may not hold up.

What follows are compounds tested against 15-hydroxyprostaglandin dehydrogenase [NAD(+)] (Homo sapiens) (UniProt P15428) (assay: qHTS Assay for Inhibitors of HPGD (15-Hydroxyprostaglandin Dehydrogenase)). Settings: purified HPGD, NADH fluorescence kinetic, PGE2 substrate; activity change, negative = inhibition: hits give low values.
How it was run: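 NADH formation kinetics: reaction with 30 uM PGE2 and 1 mM NAD+ (final), 20 nM enzyme, Tris-HCl pH 8 with Tween 20, after 15 min compound preincubation at room temperature. Fluorescence change, last versus first of five reads.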
% is scaled to controls: 0 for no effect and ±100 for the full control effect; potency is read from the fitted curve at half-maximal effect; tags tell the direction and shape of the fitted curve.

Chain of UniProt P15428 (P15428 whole entry, looked up): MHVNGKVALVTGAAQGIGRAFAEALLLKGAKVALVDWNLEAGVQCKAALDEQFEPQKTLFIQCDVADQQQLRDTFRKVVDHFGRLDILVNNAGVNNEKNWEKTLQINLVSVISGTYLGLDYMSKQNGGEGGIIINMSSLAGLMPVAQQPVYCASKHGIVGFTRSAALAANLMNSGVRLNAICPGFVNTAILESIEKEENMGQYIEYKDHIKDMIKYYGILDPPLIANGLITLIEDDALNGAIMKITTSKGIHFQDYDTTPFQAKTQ

Potency, inconclusive:
CCn1c(SCC(=O)Nc2nc(-c3ccccc3)cs2)nnc1-c1ccccc1O 28.2 µM [inhibitor, partial curve]
CC(=O)NC(=S)Nc1ccc(-c2nc3ccc(C)cc3s2)cc1 35.5 µM [inhibitor, single point]
CCOC(=O)C1=C(C)NC2=C(C(=O)C(C(=O)OCC)C(c3ccc(OC)cc3)C2)C1c1ccccn1 (stereo not given) 17.8 µM [inhibitor, partial curve]
COc1ccc(-c2cc(C(F)(F)F)nc(SCC(=O)N(C)Cc3cn(C)nc3C)n2)cc1OC 25.1 µM [inhibitor, partial curve]
Cc1sc2nc(CN(C(=O)NC3CCCCC3)C3CCCCC3)[nH]c(=O)c2c1C 25.1 µM [inhibitor, single point]
COC(=O)c1c(-c2ccc(C)cc2)csc1NC(=O)Cc1ccc(OC)c(OC)c1 39.8 µM [inhibitor, single point]
N#Cc1cccc(-c2cc(NCc3cccs3)ncn2)c1 4.47 µM [inhibitor, full curve]
O=C(Nc1ccc2nc(SCc3ccc(Cl)cc3)sc2c1)c1ccccc1C(=O)N1CCOCC1 39.8 µM [inhibitor, single point]
O=C(CN1CCOCC1)Nc1ccc(Oc2ccc(NC(=O)CN3CCOCC3)cc2)cc1 17.8 µM [inhibitor, single point]
CCOC(=O)c1sc(=S)n(-c2ccccc2OC)c1N 14.1 µM [inhibitor, single point]
CC(C)NC(=S)N/N=C/c1ccc(N2CCOCC2)cc1 25.1 µM [inhibitor, partial curve]
COC(=O)C1CCN(C(=O)COC(=O)c2n[nH]c3ccccc23)CC1 35.5 µM [inhibitor, single point]
S=c1[nH]nc(-c2ccc3c(c2)OCO3)n1-c1ccccc1 28.2 µM [inhibitor, partial curve]
O=c1c2ccccc2nc(SCc2cn3ccsc3n2)n1-c1ccccc1F 39.8 µM [inhibitor, single point]
COCCNC(=O)C1CCCN(c2ncccn2)C1 (stereo not given) 25.1 µM [inhibitor, partial curve]
N#Cc1c(NC(=O)c2ccc(Cn3cc(Br)cn3)o2)sc2c1CCCCCC2 15.8 µM [inhibitor, partial curve]
COc1cccc2c(=O)n(CC(=O)Nc3ccccc3)ccc12 28.2 µM [inhibitor, partial curve]
O=C(c1csnn1)N1CCC2(CC1)CN(c1ccccn1)C2 14.1 µM [inhibitor, partial curve]
COc1ccc(-c2cc(C(F)F)n3ncc(C(=O)NCC4CCCO4)c3n2)cc1 (stereo not given) 28.2 µM [inhibitor, partial curve]
Cc1c(C)c2c(C)nn(-c3ccccc3)c2[nH]c1=O 20 µM [inhibitor, partial curve, poor fit]
Cc1ccc(C)c(S(=O)(=O)NCC(=O)Nc2sc3c(c2C(N)=O)CCC(C)C3)c1 (stereo not given) 31.6 µM [inhibitor, partial curve]
O=C(On1c(-c2ccccc2)nc2ccccc2c1=O)c1ccco1 39.8 µM [inhibitor, partial curve]
COCc1cc(C)nc(NCCO)c1C#N 28.2 µM [inhibitor, partial curve]
Cc1nn(CCc2nc(-c3ccco3)cs2)c2[nH]c(=O)cc(C(F)(F)F)c12 12.6 µM [inhibitor, partial curve]
COc1cc2c(cc1OC)-c1cc(NC3CCCCCCC3)nc(=O)n1CC2 22.4 µM [inhibitor, partial curve]
CN(C)C=Nc1ncc2c3ccccc3n(CCN(C)C)c2c1C#N 28.2 µM [inhibitor, partial curve]
N#CCCn1c(=O)c(CCc2ccccc2)nc2cnc(N3CCOCC3)nc21 1.26 µM [inhibitor, full curve, poor fit]
Cc1cccnc1NC(=O)Nc1cccc2ccccc12 39.8 µM [inhibitor, single point]
CCOC(=O)N1CCC(NC(=O)c2ccc3c(c2)sc2nc(-c4cccc(OC)c4)cn23)CC1 31.6 µM [inhibitor, partial curve]
CC1(C)Oc2ccc(NC(=O)c3ccco3)cc2O1 11.2 µM [inhibitor, partial curve]
CCOC(=O)c1cc(NC(=O)c2ccc(Cl)cc2)c(=O)n2c1oc1ccc(Cl)cc12 4.47 µM [inhibitor, full curve]
COc1cccc(C(=O)Nc2nc3c(s2)CN(C)CC3)c1 25.1 µM [inhibitor, partial curve]
COc1ccc2nc(NC(=O)c3cccc(S(=O)(=O)N4CCOCC4)c3)sc2c1 31.6 µM [inhibitor, partial curve]
Cn1c(O)c(N=Nc2nc(-c3ccccc3)cs2)c2ccccc21 35.5 µM [inhibitor, partial curve]
Cc1ccc2cc(CCNC(=O)c3ccco3)c(=O)[nH]c2c1 15.8 µM [inhibitor, partial curve]
O=C(NCCO)c1ccc2nc(-c3ccco3)c(-c3ccco3)nc2c1 25.1 µM [inhibitor, single point]
O=C(Cc1cccs1)NCc1cn2ccccc2n1 28.2 µM [inhibitor, partial curve]
COc1ccc(-c2cc(C(=O)Nc3ccccc3SC)no2)cc1OC 22.4 µM [inhibitor, partial curve]

Potency, active:
CCOC(=O)c1cc(-c2ccc(/C=C3/C(=O)NC(=O)C(C#N)=C3C)o2)ccc1Cl 22.4 µM
Nc1c(C(=O)N2CCOCC2)sc(=S)n1-c1ccccc1 11.2 µM
COc1ccc(/C=C2/C(=O)N(c3nc4ccccc4s3)N=C2CSc2ccc(Cl)cc2)cc1 14.1 µM
CCOc1ccc2c(c1)c1nnc(SCC(=O)N3CCC(C)CC3)nc1n2C 3.55 µM
COc1ccc(C(=O)c2ccccc2O)c(O)c1 2.51 µM and 501 nM
Cc1nc(C)c(C(=O)NCc2ccccc2Cl)o1 25.1 µM
Cc1ccc(-n2nnc3c(SCC(=O)NCC4CCCO4)ncnc32)cc1 (stereo not given) 1.26 µM
O=C(C1CCCN(Cc2ccccc2Br)C1)N1CCCCC1 (stereo not given) 25.1 µM
Clc1ccc(C2=CSC3=Nc4cccc5cccc(c45)N23)cc1 7.94 µM
Cc1ccccc1N1CCN(C2=NC(=O)/C(=C\c3cccs3)S2)CC1 25.1 µM
COc1cc(OC)c(-n2cc(-c3ccc(Cl)cc3)[nH]c2=O)cc1Cl 7.08 µM
COC(=O)c1ccc(CSc2ncnc3c2nnn3-c2ccc(F)cc2)o1 7.08 µM
CC1N/C(=C\C(=O)c2ccccc2)N(O)C1(C)C (stereo not given) 14.1 µM
CC(=O)Nc1ccc(OCC(O)Cn2c3ccccc3c3ccccc32)c(C)c1 (stereo not given) 25.1 µM
O=C(CSc1c[nH]c2ccccc12)NCC1CCCO1 (stereo not given) 3.98 µM
COc1ccc(Nc2oc(COc3ccc(Cl)cc3)nc2C#N)cc1 28.2 µM
CC(C)OCC(O)CSc1ccccn1 (stereo not given) 17.8 µM

Activity change, negative = inhibition, inactive:
Cc1nn(C(=O)c2c([N+](=O)[O-])cnn2C)c(C)c1Cl -10.1%
COCCNC(=O)CN(c1ccc(OC)c(OC)c1)S(=O)(=O)c1ccc(C)cc1 -10.3%
CCCNC(=O)c1ccc(Cl)c(Cl)c1 -21.6%
Cc1ccc(-n2[nH]c(C)c(/C=N/c3ccccn3)c2=O)cc1 -14.4%
COc1ccc2[nH]cc(C=O)c2c1 -27.5%
CC(=O)NC1CC2CCC(C1)N2Cc1ccc(C)cc1 (stereo not given) -1.16%
CCOC(=O)c1c(-c2ccccc2)csc1NC(=O)CCN1CCOCC1 -18.5%
COc1ccccc1Oc1cc(C#N)c(C#N)cc1-n1nnc2ccccc21 -18.6%
CC1(OC(=O)C2CCCC2)C(=O)C=C2C=C(c3ccsc3)OC=C2C1=O (stereo not given) -4.1%
Cc1cccc(CSc2cn(CC(=O)N3CCOCC3)c3ccccc23)c1 -10.1%
Nc1nc(=O)n(C2OC(CO)C(O)C2O)cc1Cl (stereo not given) -4.51%
CN(C)S(=O)(=O)c1ccc(Cl)c(NC(=O)COC(=O)CN2C(=O)NC(C)(C)C2=O)c1 -3.33%
CC(C)=CC[N+]1(C)CCCCC1 -3.37%
CC[C@@H](CS(=O)(=O)O)[N+](=O)[O-] -2.46%
COC(=O)c1ccc(COn2c(=O)c(C)[n+]([O-])c3ccccc32)cc1 -13.3%
CN1C(=C2C(=O)OC(C)(C)OC2=O)Sc2ccccc21 -19.4%
Cc1ccc2nc(Cl)c(/C=N/Nc3nc(C)cc(C)n3)c(=O)n2c1 -8.2%
Cc1ccc(NC(=O)CNC(c2ccccc2)c2ccccc2)c(F)c1 -18.5%
O=C(O)/C(=C\c1ccccc1)c1ccccc1 -13.2%
Cc1sc2ncnc(NCC(c3ccco3)N3CCCC3)c2c1C (stereo not given) -0.429%
